In PMC10847504 one finds response data, which are given here for two variants.

Residue numbers refer to the chain shown, from its start. In names and notes the source's numbering stands.

B1: mCherry-DDX6(WT), shRNA-resistant [not stated] / GFP-Ago2(S387D), phospho-mimic mutant [not stated] (parent)
chain 1: MSTARTENPVIMGLSSQNGQLRGPVKPTGGPGGGGTQTQQQMNQLKNTNTINNGTQQQAQSMTTTIKPGDDWKKTLKLPPKDLRIKTSDVTSTKGNEFEDYCLKRELLMGIFEMGWEKPSPIQEESIPIALSGRDILARAKNGTGKSGAYLIPLLERLDLKKDNIQAMVIVPTRELALQVSQICIQVSKHMGGAKVMATTGGTNLRDDIMRLDDTVHVVIATPGRILDLIKKGVAKVDHVQMIVLDEADKLLSQDFVQIMEDIILTLPKNRQILLYSATFPLSVQKFMNSHLQKPYEINLMEELTLKGVTQYYAYVTERQKVHCLNTLFSRLQINQSIIFCNSSQRVELLAKKISQLGYSCFYIHAKMRQEHRNRVFHDFRNGLCRNLVCTDLFTRGIDIQAVNVVINFDFPKLAETYLHRIGRSGRFGHLGLAINLITYDDRFNLKSIEEQLGTEIKPIPSNIDKSLYVAEYHSEPVEDEKP
chain 2: MYSGAGPALAPPAPPPPIQGYAFKPPPRPDFGTSGRTIKLQANFFEMDIPKIDIYHYELDIKPEKCPRRVNREIVEHMVQHFKTQIFGDRKPVFDGRKNLYTAMPLPIGRDKVELEVTLPGEGKDRIFKVSIKWVSCVSLQALHDALSGRLPSVPFETIQALDVVMRHLPSMRYTPVGRSFFTASEGCSNPLGGGREVWFGFHQSVRPSLWKMMLNIDVSATAFYKAQPVIEFVCEVLDFKSIEEQQKPLTDSQRVKFTKEIKGLKVEITHCGQMKRKYRVCNVTRRPASHQTFPLQQESGQTVECTVAQYFKDRHKLVLRYPHLPCLQVGQEQKHTYLPLEVCNIVAGQRCIKKLTDNQTSTMIRATARSAPDRQEEISKLMRSADFNTDPYVREFGIMVKDEMTDVTGRVLQPPSILYGGRNKAIATPVQGVWDMRNKQFHTGIEIKVWAIACFAPQRQCTEVHLKSFTEQLRKISRDAGMPIQGQPCFCKYAQGADSVEPMFRHLKNTYAGLQLVVVILPGKTPVYAEVKRVGDTVLGMATQCVQMKNVQRTTPQTLSNLCLKINVKLGGVNNILLPQGRPPVFQQPVIFLGADVTHPPAGDGKKPSIAAVVGSMDAHPNRYCATVRVQQHRQEIIQDLAAMVRELLIQFYKSTRFKPTRIIFYRDGVSEGQFQQVLHHELLAIREACIKLEKDYQPGITFIVVQKRHHTRLFCTDKNERVGKSGNIPAGTTVDTKITHPTEFDFYLCSHAGIQGTSRPSHYHVLWDDNRFSSDELQILTYQLCHTYVRCTRSVSIPAPAYYAHLVAFRARYHLVDKEHDSAEGSHTSGQSNGRDHQALAKAVQVHQDTLRTMYFA
B2: mCherry-DDX6(WT), shRNA-resistant [not stated] / GFP-Ago2(S387A), phospho-null mutant [not stated] (parent)
chain 1: B1 chain 1
chain 2: B1 chain 2 with D387A

In the first assay the parent is B1. Put plainly: GFP-trap pull-down, Western blot quantification. Particulars: with GFP-Ago2(S387D), shDDX6 with shRNA-resistant mCherryDDX6(R386E), partner GFPAgo2(S387D), lentivirally transduced neurons, parent: 1.4, read off a plot.
Regarding chain 1 R386E, the response is 0.22.

The variants in another assay derive from B2. Put plainly: GFP-trap pull-down, Western blot quantification. Particulars: with GFP-Ago2(S387A), shDDX6 with shRNA-resistant mCherryDDX6(R386E), partner GFPAgo2(S387A), lentivirally transduced neurons, parent: 0.9, read off a plot.
Take chain 1 R386E: the response stood at 0.23.
